Assay results: ChEMBL document CHEMBL4888484, “Replenishing the malaria drug discovery pipeline: Screening and hit evaluation of the MMV Hit Generation Library 1 (HGL1) against asexual blood stage Plasmodium falciparum ,using a nano luciferase reporter read-out” (2022)
Screen size: about 150,000 compounds; about 540 (0.36%) showed an effect of 50% or more. The list shows a part of the results.

The compounds below were run on Plasmodium falciparum (assay: Primary screen in NF54 nanoGlo assay, in single point, at 2uM, 72h; a lower Z score goes with more inhibition). Details: timepoint 72 hour.
Type: functional, Erythrocyte
COCCCCS(=O)(=O)N[C@@H](C)c1cccc(Cl)c1 was tested, and the “% Inhibition” value was 4% and the Z score was -0.71.
In the case of O=C(NCc1ccc2c(c1)OCO2)N1CC(n2cc(C3CC3)nn2)C1, the “% Inhibition” value is reported as -17% and the Z score is reported as 2.
C#CCN1CCCC[C@H]1C(=O)N1CCC(n2nnc3c2CCCC3)CC1 was tested, and the “% Inhibition” value was -10% and the Z score was 1.69.
With O=C(Nc1cccs1)N[C@H]1CO[C@@H](CN2CCC(F)(F)CC2)[C@@H]1O the “% Inhibition” value was 7% and the Z score was -0.8.
Cc1cncc(CN2CCCCS2(=O)=O)c1 was tested, and the “% Inhibition” value was 14% and the Z score was -1.8.
For CCc1ncc(CNCC2(CC(C)C)CCC2)cn1, the “% Inhibition” value was -8% and the Z score was 1.08.
In the case of COc1ccccc1C(CNC(C)c1cc(C)n(C)n1)OC(C)C (configuration not stated), the “% Inhibition” value is reported as 0% and the Z score is reported as 0.01.
In the case of COc1ccccc1C[C@@H](C)CC(=O)NCc1noc(C)n1, the “% Inhibition” value is reported as 1% and the Z score is reported as -0.1.
CCN(CC)S(=O)(=O)c1c(OC)cc(C)c(Cl)c1C was tested, and the “% Inhibition” value was -1% and the Z score was 0.12.
In the case of CCCNC(=O)N1C[C@@H]2CCCN3CCC[C@@H]([C@H]23)[C@H]1CCCC(=O)Nc1ccccc1, the “% Inhibition” value is reported as 9% and the Z score is reported as -1.74.
COc1nc(C)cc(NC2CC[C@@H](O)[C@@H](O)C2)n1 (some centres not stated) was tested, and the “% Inhibition” value was -16% and the Z score was 3.19.
With C=CCn1nc(C(=O)O)c2c1CC[C@H](N(C)CC1(C)COC1)C2 the “% Inhibition” value was -4% and the Z score was 0.81.
In the case of O=S(=O)(c1ccc(F)cc1)n1ccc(-c2cccc(OCc3ccc(Cl)cc3Cl)c2)n1, the “% Inhibition” value is reported as 39% and the Z score is reported as -5.03.
With Cc1noc(OCC(C)(C)ONC(=O)OC(C)(C)C)n1 the “% Inhibition” value was 1% and the Z score was -0.23.
CN1N=C(C(=O)NC2CCC3CCCCC3C2)CCC1=O (configuration not stated) was tested, and the “% Inhibition” value was 28% and the Z score was -4.02.
For CC1(c2cnccn2)NC(=O)N(CC(O)CC2CCCC2)C1=O (configuration not stated), the “% Inhibition” value was -3% and the Z score was 0.5.
In the case of CNC(=O)NCC(=O)N1CCC[C@]1(C)Cc1ccc(Cl)s1, the “% Inhibition” value is reported as -14% and the Z score is reported as 1.48.
For O=C(CCCc1ccccc1)Nc1cc(N2CCCC2=O)ccc1Cl, the “% Inhibition” value was -1% and the Z score was 0.27.
CCc1ncc2c(n1)CN(C(=O)C(C)(C)Oc1ccc3c(c1)CCC3)C2 was tested, and the “% Inhibition” value was 7% and the Z score was -1.3.
For Cc1ccccc1CC(=O)N1CCC2(CCC(=O)N(CCc3c[nH]cn3)C2)CC1, the “% Inhibition” value was -14% and the Z score was 1.75.
In the case of C[C@H]1CN(c2ccnc3c2cnn3C)CCN1S(C)(=O)=O, the “% Inhibition” value is reported as 2% and the Z score is reported as -0.45.
O=C(CN1CCOCC1)N1CCN(Cc2ccccc2)CC1 was tested, and the “% Inhibition” value was -4% and the Z score was 0.74.
CS(=O)(=O)N1CCC(OCc2nc(-c3ccncc3)no2)CC1 was tested, and the “% Inhibition” value was 0% and the Z score was -0.03.
For CCn1cc(NC(=O)N2CCC[C@H]2c2ccc(F)cc2C)cn1, the “% Inhibition” value was -12% and the Z score was 1.75.
In the case of Cc1cc(C(=O)CN2CCCN(c3ccc(C(F)(F)F)cn3)CC2)c(C)n1C(C)C, the “% Inhibition” value is reported as -9% and the Z score is reported as 1.38.
With COc1cccc(NS(=O)(=O)c2ccc(-c3ccno3)cc2OC)c1 the “% Inhibition” value was -14% and the Z score was 2.41.
In the case of C=C(C)CNC(=O)c1coc(COc2ccc3c(c2)OCO3)n1, the “% Inhibition” value is reported as -21% and the Z score is reported as 1.86.
For Cc1c(F)cccc1C(=O)N1CCC[C@H](N2CCCS2(=O)=O)C1, the “% Inhibition” value was -2% and the Z score was 0.3.
With Cc1cccnc1CN(C)C(=O)c1cc(CO)ccn1 the “% Inhibition” value was -7% and the Z score was 0.94.
With Cc1cccc(C[C@H](C)NC(=O)c2ccc(C)n2C(F)F)n1 the “% Inhibition” value was -5% and the Z score was 0.99.
With C[C@H](NC(=O)C1CC(=O)C1)C(C)(F)F the “% Inhibition” value was -6% and the Z score was 0.74.
Cc1ccc(S(=O)(=O)N2CC[C@]3(CCOC3)C2)cc1N(C)C was tested, and the “% Inhibition” value was -5% and the Z score was 0.75.
With CC(C)Cn1ccnc1CN1C(=O)[C@@H]2CCCN2C1=O the “% Inhibition” value was -14% and the Z score was 1.74.
O=C1CC(c2ccccc2)=NN1c1nc(-c2ccc(Cl)cc2)cs1 was tested, and the “% Inhibition” value was -10% and the Z score was 1.83.
For COCCN1C(=O)c2c(NC(C)=O)c3cc(OC)ccc3n2C[C@@]1(C)C(=O)NC1CCCCCCC1, the “% Inhibition” value was -8% and the Z score was 0.78.
Cc1cc(C)c(CNC(=O)c2cnccc2-c2noc(C)n2)c(=O)[nH]1 was tested, and the “% Inhibition” value was -6% and the Z score was 0.88.
In the case of CC(C)n1cncc1CN(C)C[C@H]1CCCCO1, the “% Inhibition” value is reported as -9% and the Z score is reported as 1.81.
COc1ccc2c(c1)CN(Cc1ccccn1)CC[C@H]1COC(=O)N21 was tested, and the “% Inhibition” value was -16% and the Z score was 2.
With COc1ccccc1-c1noc(C[C@H](C)c2c(C)n[nH]c2C)n1 the “% Inhibition” value was -14% and the Z score was 2.04.
With CCN(CC)Cc1ccc2c(c1)CN(C(=O)C1CCOCC1)CCO2 the “% Inhibition” value was -13% and the Z score was 1.42.
For COC(=O)c1cc(O)cc(C(=O)N[C@H]2CN(C)C[C@@H]2OC)c1, the “% Inhibition” value was -2% and the Z score was 0.26.
For CCCc1nc(C(=O)N2CC[C@H](c3cccnc3OC)C2)co1, the “% Inhibition” value was -3% and the Z score was 0.51.
In the case of COCCC(C)(C)CNC(=O)c1cccc(Cl)c1F, the “% Inhibition” value is reported as -8% and the Z score is reported as 1.02.
With COc1ccc(Cn2ncnc2CCCn2cnnn2)cc1 the “% Inhibition” value was -4% and the Z score was 0.79.
COc1c(C)cnc(CN2CCC=C(CNC(C)=O)C2)c1C was tested, and the “% Inhibition” value was 8% and the Z score was -1.08.
For COCCn1c(-c2ccc(Cl)cc2)cn2c(-c3ccccc3)c(-c3ccccc3)nc12, the “% Inhibition” value was -2% and the Z score was 0.28.
With CCCCN(C)S(=O)(=O)N(c1ccc(OC)cc1)[C@H]1CCS(=O)(=O)C1 the “% Inhibition” value was 3% and the Z score was -0.6.
With CC(C)c1csc([C@@H](C#N)C(=O)c2coc(C3CCCCC3)n2)n1 the “% Inhibition” value was -2% and the Z score was 0.19.
With CC(C)CNC(=O)[C@@H]1COC2(CCCCC2)N1C(=O)c1cccc(Cl)c1 the “% Inhibition” value was -11% and the Z score was 1.03.
Clc1cccc(CNc2ncnc3c2nc2n3CCCCC2)c1 was tested, and the “% Inhibition” value was -1% and the Z score was 0.16.
With CCN1CCN(c2ncc(-c3cc(=O)[nH]c(N4CCN(Cc5ccccc5)CC4)n3)c(C)n2)CC1 the “% Inhibition” value was 3% and the Z score was -0.36.
In the case of O=C(CCCc1cn[nH]c1)N1CCCN(C(=O)c2ccccn2)CC1, the “% Inhibition” value is reported as 2% and the Z score is reported as -0.27.
For O=C(c1ccccc1O)N1CCN(Cc2ccccn2)[C@@H]2CS(=O)(=O)C[C@@H]21, the “% Inhibition” value was -3% and the Z score was 0.5.
C[C@@H](Cn1ccnc1)NC(=O)COCC(F)(F)F was tested, and the “% Inhibition” value was -23% and the Z score was 2.36.
With CCn1c(C(=O)NCCc2ccc(S(N)(=O)=O)cc2)c(N2CCCC2=O)c2cc(OC)ccc21 the “% Inhibition” value was -7% and the Z score was 1.06.
In the case of COc1cn(CC(=O)NC2CC2)c(CN2CCCCCC2)cc1=O, the “% Inhibition” value is reported as -4% and the Z score is reported as 0.49.
For Cc1ccn2c(NC(=O)c3ccc4c5c([nH]c4c3)CCCC5)nnc2n1, the “% Inhibition” value was -5% and the Z score was 0.87.
In the case of CC(C)(C)c1ccn(C2(C(=O)O)CCN(C(=O)N3CCCCC3)CC2)n1, the “% Inhibition” value is reported as -8% and the Z score is reported as 1.63.
O=C(NCCc1ccc(-c2ccsc2)s1)C1CCC1 was tested, and the “% Inhibition” value was -1% and the Z score was 0.23.
For Cc1cnc(NC(=O)CN2CCOCC2)s1, the “% Inhibition” value was -10% and the Z score was 1.17.
For Cc1ccccc1NC(=O)C1CC=CCC1C(=O)N(c1ccccc1)c1ccccc1 (configuration not stated), the “% Inhibition” value was -16% and the Z score was 2.98.
In the case of COC[C@H]1CN(C2CCC2)CC12CCN(C(=O)CCc1ccccc1)CC2, the “% Inhibition” value is reported as 2% and the Z score is reported as -0.25.
For CC1C(C(=O)O)CCN1C(=O)C1CCCCCCC1 (configuration not stated), the “% Inhibition” value was 1% and the Z score was -0.06.
With Fc1ccccc1-c1cc(NCCCn2cnnc2)n2nccc2n1 the “% Inhibition” value was 10% and the Z score was -1.82.
For CC(=O)Nc1ccc(-c2c(C(=O)Nc3ccc(C)cc3C)c(C)nc3sc(C(=O)NC4CCCC4)c(N)c23)cc1, the “% Inhibition” value was 4% and the Z score was -0.67.
With CN1CCN(c2cnccn2)C[C@@]12CCC(=O)N(CC1CC1)CC2 the “% Inhibition” value was -24% and the Z score was 4.18.
For Cc1oc2ncnc(N3CCC(C(=O)NCCN4CCOCC4)CC3)c2c1C, the “% Inhibition” value was 3% and the Z score was -0.29.
Cc1oc2ncn(C)c(=O)c2c1C(=O)N1CCCCCC1 was tested, and the “% Inhibition” value was -2% and the Z score was 0.36.
COc1ccc([C@@H](C)NC(=O)N2CCC(c3ccco3)C2)c(OC)c1 (some centres not stated) was tested, and the “% Inhibition” value was 0% and the Z score was 0.08.
With O=C1NC2(CCOCC2)C(=O)N[C@@H]1c1ccccc1 the “% Inhibition” value was -10% and the Z score was 1.
CCCN1CC2(CCN(C(=O)c3snnc3CC)CC2)C[C@H]1C(=O)O was tested, and the “% Inhibition” value was 3% and the Z score was -0.55.
O=C(NCc1c[nH]nn1)c1ccsc1 was tested, and the “% Inhibition” value was -8% and the Z score was 1.37.
In the case of CC[C@H]1CC[C@@H](C)N(C(=O)c2cn(C)nc2-c2cnn(C)c2)C1, the “% Inhibition” value is reported as -3% and the Z score is reported as 0.34.
CC(C)c1ncc(C(=O)N[C@H]2CC[C@@H]3CCC[C@@H]32)cn1 was tested, and the “% Inhibition” value was 8% and the Z score was -1.03.
For Cc1cc(Cn2nnc(C3CC3)n2)on1, the “% Inhibition” value was 15% and the Z score was -1.85.
In the case of O=C1NCCCc2cc(OCc3ncnn3CCF)ccc21, the “% Inhibition” value is reported as -12% and the Z score is reported as 1.58.
Oc1ccc2c(c1)OCCN(c1nc(C3CCCC3)ns1)C2 was tested, and the “% Inhibition” value was 4% and the Z score was -0.65.
For COCC1(c2noc([C@@H]3CCOC3)n2)CCCC1, the “% Inhibition” value was 5% and the Z score was -0.64.
C[C@@H](CS(C)(=O)=O)NCc1ccc(-c2ncon2)cc1 was tested, and the “% Inhibition” value was -6% and the Z score was 0.89.
For O=C(c1ccncc1F)N1CCN(c2ccccn2)C(=O)C1, the “% Inhibition” value was 9% and the Z score was -1.19.
In the case of CC1=NN(c2nc(C)cc(O)n2)C(=O)C1, the “% Inhibition” value is reported as 37% and the Z score is reported as -4.79.
COc1ccc(S(=O)(=O)N2CCOCC2)cc1NC(=O)Cc1c(C)nn(C)c1C was tested, and the “% Inhibition” value was -2% and the Z score was 0.19.
For COc1cc2c(cc1OC)CN(C(=O)COc1ccc(-c3ccn[nH]3)cc1)CC2, the “% Inhibition” value was 29% and the Z score was -3.91.
O=C(Cn1nnc2c1CCCC2)N1CCc2c(ncn2-c2ccccc2)C1 was tested, and the “% Inhibition” value was -8% and the Z score was 0.84.
For Cc1csc(Cc2nc(-c3ccc(Br)cc3)cs2)n1, the “% Inhibition” value was 5% and the Z score was -0.43.
CCc1nccc(CN2CCc3[nH]cnc3[C@@H]2c2cc3ccccc3o2)n1 was tested, and the “% Inhibition” value was -1% and the Z score was 0.24.
